In PMC7819943, “Rice protein-binding microarrays: a tool to detect cis-acting elements near promoter regions in rice”:
The list shows a part of the results.

What follows are sequences tested against T1, OsWOX13 (Oryza sativa, UniProt Q5QMM3 1-267) (assay: protein-binding microarray (RPBM); PBS, 2% BSA, 51.3 ng/ul salmon testes DNA, 50 uM zinc acetate, 200 nM TF, 25 C, 1 h; high values mean tight binding). Conditions: protein: recombinant; tags: N-terminal polyhistidine and DsRed monomer fusion (pET32a); label: CyDye5-dUTP incorporated in the synthesized complementary strand; 3' TTTTT single-stranded linker to array surface; dsDNA, one strand shown.
T1 sequence: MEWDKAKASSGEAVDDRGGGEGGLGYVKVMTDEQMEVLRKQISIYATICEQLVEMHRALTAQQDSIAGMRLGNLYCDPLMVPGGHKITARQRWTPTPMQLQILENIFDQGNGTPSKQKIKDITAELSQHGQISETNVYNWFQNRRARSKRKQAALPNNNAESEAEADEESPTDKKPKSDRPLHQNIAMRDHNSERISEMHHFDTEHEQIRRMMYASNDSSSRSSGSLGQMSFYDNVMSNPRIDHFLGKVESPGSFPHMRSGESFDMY
How it was run: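 Binding signal is defined as the fluorescence intensity of each feature in arbitrary units, read on an Axon 4000B scanner. Transcription factors with N-terminal polyhistidine and DsRed fusions came from E. coli BL21-CodonPlus and were purified on Ni–NTA. They were incubated at 200 nM for 1 h at 25 °C on a custom Agilent array that had been made double-stranded with Cy5-dUTP, with 50 µM zinc acetate present, and the array was washed.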

Row | Sequence | binding signal
1 | GATCGTAACTGGATTGATCGATCCACCATGCCTAATGGGTCGGAGTCACCTAGTGCAG | 18700 fluorescence intensity (a.u.)
2 | AAATAATTGTTGCCATTGATTATTTTCCTTCTCAAAGTTACGGAGTCACCTAGTGCAG | 18000 fluorescence intensity (a.u.)
3 | TTTGGGATTATTATAATCTAGATTATTGAGTCATATTACTCGGAGTCACCTAGTGCAG | 10300 fluorescence intensity (a.u.)
4 | TTCAAATTATAATGTATACTCAAATAGAATCCGATCAAATCGGAGTCACCTAGTGCAG | 3480 fluorescence intensity (a.u.)
5 | AAAAGTTTGACTAGAACGGCAAACCCGAGTAGAAGATTGACGGAGTCACCTAGTGCAG | 6130 fluorescence intensity (a.u.)
6 | CATAGGATCAATTTAATATATTGACATGCCATTAGGCCATCGGAGTCACCTAGTGCAG | 10600 fluorescence intensity (a.u.)
7 | TTAATAATCTGTTAGACATAATCATCTAGGGTATAACCTGCGGAGTCACCTAGTGCAG | 14200 fluorescence intensity (a.u.)
8 | AGGACTGCAGTAACTACGGTAATTTCCTTGCTGACAGAAACGGAGTCACCTAGTGCAG | 4760 fluorescence intensity (a.u.)
9 | TCTTATTAGCACATGATTAATTAAGTATTAACTATTATGACGGAGTCACCTAGTGCAG | 20200 fluorescence intensity (a.u.)
10 | GAAATCAAATTAAATTTAATCGGCTAAAACCATATTTCATCGGAGTCACCTAGTGCAG | 27000 fluorescence intensity (a.u.)
11 | TAATAATTAAAATTTAATTAATTATATGCTAATTACTTTCCGGAGTCACCTAGTGCAG | 24000 fluorescence intensity (a.u.)
12 | ATGTAAATTTATTTGGGACTTACATATGTAATTTTGCGACCGGAGTCACCTAGTGCAG | 24700 fluorescence intensity (a.u.)
13 | TTAACTTTGAATTTTCATGATTTATTATCTATTAATCTATCGGAGTCACCTAGTGCAG | 3380 fluorescence intensity (a.u.)
14 | ACAAAATAAAATGATGGGCATTTTCTTCAGTTACAATTTCCGGAGTCACCTAGTGCAG | 3910 fluorescence intensity (a.u.)
15 | ATAACTTATAATTGGATCTCACTGGTGACTGAACCAAGGACGGAGTCACCTAGTGCAG | 15400 fluorescence intensity (a.u.)
16 | TCTGATTATGACTCGATTCAATTAGCAGCAACGACTAATGCGGAGTCACCTAGTGCAG | 46700 fluorescence intensity (a.u.)
17 | AAGACTAGATCTATAAATTTATGTACACTAGAGTCTTTGTCGGAGTCACCTAGTGCAG | 3750 fluorescence intensity (a.u.)
18 | AGTTAATTATCTAGCTAGTGGAAGCTCCACATATATAATCCGGAGTCACCTAGTGCAG | 18200 fluorescence intensity (a.u.)
19 | TCTAAACTAATCTAATCTAGCAACGCGATTTAGCCGATACCGGAGTCACCTAGTGCAG | 9190 fluorescence intensity (a.u.)
20 | ATTCATTAGGGTGTAATTTGTAAATTGTCTTGAGTCTTTACGGAGTCACCTAGTGCAG | 5930 fluorescence intensity (a.u.)
21 | ATCGTGATTGATGGCATTGGTATAGATTTCGAGCATTGGCCGGAGTCACCTAGTGCAG | 63900 fluorescence intensity (a.u.)
22 | TTAATTAGCTCATCATGCATCGATTGCTATCTACAAGCTTCGGAGTCACCTAGTGCAG | 19600 fluorescence intensity (a.u.)
23 | TATACTTAATTTGACCCACGGCATCATCGTGGTGTCGTCTCGGAGTCACCTAGTGCAG | 8320 fluorescence intensity (a.u.)
24 | GATTGCAATTAAGTGATTTTGTAATTCATATAGTATGGGACGGAGTCACCTAGTGCAG | 10100 fluorescence intensity (a.u.)
25 | TAATTGCTTAATTGCTTGATGTAGGGATATTAGAGCAATGCGGAGTCACCTAGTGCAG | 19100 fluorescence intensity (a.u.)
26 | AGTGCTGTAATGACTGTCATTAAGTAGGATTCAGACCAGGCGGAGTCACCTAGTGCAG | 7850 fluorescence intensity (a.u.)
27 | TGCTGTAATTACTTTTCTGTAATTTGGATTAATCCTTCGCCGGAGTCACCTAGTGCAG | 40800 fluorescence intensity (a.u.)

Row | Sequence | binding signal
28 | CAGATTATAATTGATAGACCGTAGGCTGTAGCTGATACTCCGGAGTCACCTAGTGCAG | 39400 fluorescence intensity (a.u.)
29 | ATAAATTAATTGCCAAGTTGTACTCGGCGGCAACGGCAGCCGGAGTCACCTAGTGCAG | 36700 fluorescence intensity (a.u.)
30 | TATAAGTTAAATCAATTTAATCAAGTAAAATAATGGGAGACGGAGTCACCTAGTGCAG | 11900 fluorescence intensity (a.u.)
31 | GCGGCTGGAATTTTCGAAATTAATCGAGATTGTAGAAATGCGGAGTCACCTAGTGCAG | 3970 fluorescence intensity (a.u.)
32 | TTTGTTTTCAATCATGTACAACGTTTGTACGTACGGAAAGCGGAGTCACCTAGTGCAG | 14300 fluorescence intensity (a.u.)
33 | AGTAACTGATATATAAGGATCTAACCACAAGATCATGGTGCGGAGTCACCTAGTGCAG | 9100 fluorescence intensity (a.u.)
34 | TTATAATCACAAGTCAGATTTGTTAATTCCGTTGATCTCGCGGAGTCACCTAGTGCAG | 12800 fluorescence intensity (a.u.)
35 | CTCATGATTTGGTTAGTAGTAGTTGGTTGGTTAGTTTACGCGGAGTCACCTAGTGCAG | 14500 fluorescence intensity (a.u.)
36 | GAAAACCGACGAGAATTGCCAATTAGGCAGTGCTGACCGACGGAGTCACCTAGTGCAG | 13200 fluorescence intensity (a.u.)
37 | ACGATTGATGATTCACCAGAGATAGAGAACAGGGCAAGCACGGAGTCACCTAGTGCAG | 20700 fluorescence intensity (a.u.)
38 | CAGGCTGACAGATGGTGTGCGCCGCCGGAATATTTCGCTACGGAGTCACCTAGTGCAG | 3360 fluorescence intensity (a.u.)
39 | ATACTAATTGGCGACAGATGATTGCACGTCTTATAGCTATCGGAGTCACCTAGTGCAG | 38400 fluorescence intensity (a.u.)
40 | TTGTATTGACTGAATGGCGCTCTTGGCTTACTTCACCGTTCGGAGTCACCTAGTGCAG | 23700 fluorescence intensity (a.u.)
41 | GAGCTTTGAATGCCAATCTTCACCACCATAGTAGTACTATCGGAGTCACCTAGTGCAG | 4310 fluorescence intensity (a.u.)
42 | GAGTTCGATCGCAGTAATTAACCCCGTGACTAGAAATCTTCGGAGTCACCTAGTGCAG | 3580 fluorescence intensity (a.u.)
43 | TGAGTATTTGATAGGCAGCTAACTGATAACGGACAGCACTCGGAGTCACCTAGTGCAG | 19800 fluorescence intensity (a.u.)
44 | ATAATAGATTTGGTCAAAATTTATCGAAAACCGATCGAAACGGAGTCACCTAGTGCAG | 13200 fluorescence intensity (a.u.)
45 | GTCTTAATTATATTTGATAATCAACTTTATCCTTGGTTTGCGGAGTCACCTAGTGCAG | 50800 fluorescence intensity (a.u.)
46 | CCTGATTTGGAGGTTTTGTTGGGTGCAGACCATTCAGGGGCGGAGTCACCTAGTGCAG | 30200 fluorescence intensity (a.u.)
47 | AAGATACGTGATTGAAATCATTCCATTATGGACGACATTGCGGAGTCACCTAGTGCAG | 54000 fluorescence intensity (a.u.)
48 | TTCAGGATGATTGACCCGGATGGAAGGAGGAATTCGTTGTCGGAGTCACCTAGTGCAG | 52200 fluorescence intensity (a.u.)
49 | GAGCAATTTGCTTTGATTAAGGTTCTCTCAACAAGAGGAACGGAGTCACCTAGTGCAG | 4760 fluorescence intensity (a.u.)
50 | AACTTGATTGCGACCTGTCAACACACAGGTTTTATTATTTCGGAGTCACCTAGTGCAG | 35600 fluorescence intensity (a.u.)
51 | ATCTAAATCGTTGATGATTTTCGGAGCCACCGTGCGAAACCGGAGTCACCTAGTGCAG | 5020 fluorescence intensity (a.u.)
52 | TTTATTTCTAACGATGAAATTGACTGAGGGGTAATTTCGTCGGAGTCACCTAGTGCAG | 9720 fluorescence intensity (a.u.)
53 | CAGTAACTGTTACTGTTGCTACTATATCACTTGATATTCACGGAGTCACCTAGTGCAG | 3230 fluorescence intensity (a.u.)
54 | CAAGCTAATCAGTCTTGGCAAGAAGTATATGCACAGCCTCCGGAGTCACCTAGTGCAG | 3400 fluorescence intensity (a.u.)
